The text below walks through data of the antibiotic and cytotoxicity screens of Wong et al. (2023).

The other results are listed elsewhere or left out.

This assay relates to HSkMC (human skeletal muscle cells). The assay is described as follows: cytotoxicity call (relative viability < 0.9). The note with it: 10 µM.
In the case of `COc1ccc(NC(=O)N(C)C[C@H]2OCCCC[C@@H](C)Oc3ccc(NC(=O)Cc4ccccc4)cc3C(=O)N([C@@H](C)CO)C[C@@H]2C)cc1`, the cytotoxicity call is “inactive”.

For the molecule `COc1ccccc1CNC(=O)C[C@H]1CC[C@@H]2[C@H](COC[C@@H](O)CN2C(=O)Nc2ccc(F)cc2)O1`, the cytotoxicity call was “inactive”.

As to `C[C@@H]1CN([C@@H](C)CO)C(=O)c2cc(NC(=O)Cn3cnnn3)ccc2O[C@@H]1CN(C)Cc1ccncc1`, the cytotoxicity call was “inactive”.

For the molecule `COc1cc(/C=C(\C#N)C(=O)Nc2nnc(C(F)(F)F)s2)ccc1OCc1ccc(C(F)(F)F)cc1C(F)(F)F`, the cytotoxicity call was “inactive”.

Turning to `COc1ccc(S(=O)(=O)N(C)C[C@@H]2Oc3ccc(NS(=O)(=O)c4ccc(C)cc4)cc3CC(=O)N([C@@H](C)CO)C[C@@H]2C)cc1`, the cytotoxicity call is “inactive”.

As to `Cc1noc(C)c1NC(=O)Nc1ccc2c(c1)C(=O)N([C@H](C)CO)C[C@H](C)[C@H](CN(C)Cc1ccc(C(=O)Nc3ccccc3N)cc1)O2`, the cytotoxicity call is “inactive”.

Regarding `CC(O)Cn1cnc2c1c(=O)n(C)c(=O)n2C` (configuration not stated), the cytotoxicity call is “inactive”.

For `C[C@H](CO)N1C[C@H](C)[C@H](CN(C)S(=O)(=O)c2ccccc2)Oc2ccc(NS(=O)(=O)c3ccccc3)cc2C1=O`, the cytotoxicity call was “inactive”.

Turning to `C[C@@H]1CCCCO[C@H](CN(C)Cc2ccc(C(=O)O)cc2)[C@H](C)CN([C@@H](C)CO)C(=O)c2cc(NC(=O)Nc3ccc4c(c3)OCO4)ccc2O1`, the cytotoxicity call was “inactive”.

Regarding `COc1ccc(NC(=O)N(C)C[C@H]2OCCCC[C@H](C)Oc3ccc(NC(=O)Nc4ccc(C(F)(F)F)cc4)cc3C(=O)N([C@@H](C)CO)C[C@@H]2C)cc1`, the cytotoxicity call was “inactive”.

Regarding `Cl.OC(c1cc(C(F)(F)F)nc2c(C(F)(F)F)cccc12)C1CCCCN1` (configuration not stated), the cytotoxicity call was “active”.

Take `COc1ccc(CN(C)C[C@@H]2OCCCC[C@H](C)Oc3ccc(NC(=O)Nc4ccccc4)cc3C(=O)N([C@H](C)CO)C[C@@H]2C)cc1`: the cytotoxicity call was “inactive”.
